# According to PubChem BioAssay AID624417 (National Center for Advancing Translational Sciences (NCATS), 2012):
# The campaign covered roughly 410,000 compounds. About 6,400 (1.6%) were called active. Inconclusive means that the source gave no clear call. Such entries were picked first, then a sample of the others. Calls follow the shape of the dose curve; as a rule, active = well fitted inhibition curve with a large enough effect; inconclusive = small, poorly fitted or top-dose-only effect; inactive = no such curve, though single readings can be large or run the other way. No potency is given beside an inconclusive call; the fits are too rough.
# Molecular target: Glucagon-like peptide 1 receptor (Homo sapiens) (UniProt P43220)
# Assay: qHTS of GLP-1 Receptor Inverse Agonists (Inhibition Mode); also: nearly all actives have a fitted effect of over 55% in size
# Conditions: HEK293 GLP-1R CRE-luciferase, luminescence, 24 h, GLP-1R form is constitutively active; series mostly up to 38.3 µM
# Outline: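 GLP-1R inverse agonism mode: basal reporter luminescence in engineered HEK293 cells measured after one day of compound exposure at 37 deg C, with a 12 min room-temperature detection step.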
# Potency is read from the fitted curve at half-maximal effect; tags tell the direction and shape of the fitted curve.
# UniProt P43220, sequence (P43220 whole entry, looked up): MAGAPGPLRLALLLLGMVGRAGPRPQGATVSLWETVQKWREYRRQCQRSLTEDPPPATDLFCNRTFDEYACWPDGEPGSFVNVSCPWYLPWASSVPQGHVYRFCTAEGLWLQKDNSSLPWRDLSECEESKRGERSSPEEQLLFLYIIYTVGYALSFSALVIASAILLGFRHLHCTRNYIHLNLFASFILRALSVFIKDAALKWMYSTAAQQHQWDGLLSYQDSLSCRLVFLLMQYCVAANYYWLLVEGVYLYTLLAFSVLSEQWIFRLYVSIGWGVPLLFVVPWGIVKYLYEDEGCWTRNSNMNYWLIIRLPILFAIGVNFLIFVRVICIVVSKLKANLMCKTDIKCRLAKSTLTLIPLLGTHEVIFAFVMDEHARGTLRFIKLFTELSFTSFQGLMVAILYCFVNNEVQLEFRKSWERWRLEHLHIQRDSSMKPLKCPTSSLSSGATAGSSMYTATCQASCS
row,SMILES,Potency
1,O=[N+]([O-])c1ccc(COc2ccc(CN3CCOCC3)cc2)cc1,"inconclusive [inhibitor, single point]"
2,O=C(NCC1CCN(Cc2ccccc2Cl)CC1)c1cc2ccc3cccnc3c2[nH]1,"inconclusive [inhibitor, single point]"
3,CCOC(=O)c1ccc(NC(=O)COc2ccccc2CNCCO)cc1,"inconclusive [inhibitor, single point]"
4,COc1cccc2c(C)c(C(=O)O)[nH]c12,"inconclusive [inhibitor, partial curve, poor fit]"
5,COc1ccc(Cl)cc1NC(=O)CN(C)C(=O)c1ccc(N2CCCCC2)c([N+](=O)[O-])c1,"inconclusive [inhibitor, partial curve, poor fit]"
6,Cc1ccc2nc(C3CCCCC3)c(Cc3ccccc3)n2c1,"inconclusive [inhibitor, single point]"
7,C[C@H](O)[C@@H]1CN2CCc3c([nH]c4ccc(-c5ccc6c(c5)OCO6)cc34)[C@@H]2C[C@@H]1N(C)C(=O)Nc1cc(Cl)cc(Cl)c1,active: 2.82 µM
8,CC1CCN(CCCOc2ccc(Br)cc2Cl)CC1,"inconclusive [inhibitor, single point]"
9,Cc1c(NC(=O)c2ccc(Cl)cc2)cc(C(C)C)c(O)c1S(=O)(=O)c1ccccc1,"inconclusive [inhibitor, single point]"
10,O=S(=O)(c1cc(C(F)(F)F)ccc1Cl)N1CCN(c2ncnc3ccccc23)CC1,"inconclusive [inhibitor, partial curve, poor fit]"
11,CC(C)CC(=O)Nc1ccc2nn(-c3ccccc3)nc2c1,"inconclusive [inhibitor, partial curve, poor fit]"
12,CC(=O)NC(c1cccc(F)c1)c1nc(-c2cccc(C(C)C)c2)cs1 (stereo not drawn),"inconclusive [inhibitor, single point]"
13,CCc1ccc(NC(=O)c2ccc3c(O)c(S(=O)(=O)c4ccccc4)c(=O)[nH]c3c2)cc1,inactive
14,O=C(/C=C/c1ccccc1)Nc1cccc(C(=O)NCCc2ccccc2)c1,"inconclusive [inhibitor, single point]"
15,COc1cc(OC)cc(C(=O)N[C@H](C(=O)Nc2nc3c(s2)CCCC3)C(C)C)c1,"inconclusive [inhibitor, single point]"
16,CCOC(=O)C1=C(C)NC(=O)NC1c1ccc(-c2ccc(F)cc2)o1 (stereo not drawn),inactive
17,O=[N+]([O-])c1cc(CN2CCN(c3cccc(C(F)(F)F)c3)CC2)c2cccnc2c1O,"inconclusive [inhibitor, partial curve, poor fit]"
18,CC(=O)N1c2ccc(S(=O)(=O)NCC3CCC(C(=O)NCc4ccc(C)cc4)CC3)cc2CC1C (stereo not drawn),"inconclusive [inhibitor, single point]"
19,Cc1ccc2c(c1)CC(C)N2S(=O)(=O)c1nnc(NC(=O)CC(C)C)s1 (stereo not drawn),"inconclusive [inhibitor, full curve, poor fit]"
20,CCOC(=O)C(C)(C)C(=O)C(C)(C)C(O)c1ccccn1 (stereo not drawn),inactive

row,SMILES,Potency
1,CCN1CCc2c(sc(NC(=O)c3ccc(S(=O)(=O)N4CCCC4)cc3)c2C(=O)NC)C1,inactive
2,CC(C)c1ccc2occ(CC(=O)Nc3cccc(C(F)(F)F)c3)c2c1,"inconclusive [inhibitor, partial curve, poor fit]"
3,O=C(CN(C(=O)c1csnn1)c1ccc2c(c1)OCCO2)NCc1ccccc1,inactive
4,COc1ccc2nc(SCC(=O)NC3CCCCC3)[nH]c2c1,"inconclusive [inhibitor, single point]"
5,COc1cc(/C=N/NC(=O)Cc2ccccc2)ccc1Oc1ccc([N+](=O)[O-])cc1[N+](=O)[O-],"inconclusive [inhibitor, full curve, poor fit]"
6,O=C(NNC(=O)c1ccncc1)Nc1ccc([N+](=O)[O-])cc1,inactive
7,CC(C)c1nc2ccc(C(=O)NCCCN3CCN(c4ccc(F)cc4)CC3)cc2o1,"inconclusive [inhibitor, partial curve]"
8,COc1ccc(/C=N/N2CCN(C3c4ccccc4-c4ccccc43)CC2)cc1OC,"inconclusive [inhibitor, full curve]"
9,O=C(CN(Cc1ccc(F)cc1)C(=O)c1ccco1)NCc1ccc(F)cc1,"inconclusive [inhibitor, single point]"
10,O=C(c1ccc(SCc2cccc(Br)c2)c([N+](=O)[O-])c1)N1CCN(c2ccccn2)CC1,"inconclusive [inhibitor, partial curve, poor fit]"
11,Nc1cccc2c1C(=O)N(Cc1cccc(Cl)c1)C2=O,"inconclusive [inhibitor, single point]"
12,CCOC(=O)C1=C(CC)OC(N)=C(C#N)C1c1ccc(OC)c(OC)c1OC (stereo not drawn),inactive
13,COc1cccc(-n2c(-c3ccc(C)cc3)cc3c2CC(C)(C)CC3=O)c1,"inconclusive [inhibitor, full curve, poor fit]"
14,CCOC(=O)c1cn(Cc2ccccc2)nc1-c1ccccc1,"inconclusive [inhibitor, single point]"
15,CCOC(=O)c1ccc(N2C(=O)C3C(/C=C/c4ccccc4)OC4(C(=O)c5ccccc5C4=O)C3C2=O)cc1 (stereo not drawn),"inconclusive [inhibitor, partial curve, poor fit]"
16,Cc1cccc(OCCOc2ccccc2C=C(C#N)C#N)c1,"inconclusive [inhibitor, single point]"
17,CCn1cc(CN2CCCC(C(=O)Nc3cccc(-n4cccn4)c3)C2)cn1 (stereo not drawn),"inconclusive [inhibitor, partial curve, poor fit]"
18,CSCCC(NS(=O)(=O)c1ccc2c(c1)OCCO2)C(=O)N(C)Cc1ccc(C)cc1 (stereo not drawn),"inconclusive [inhibitor, single point]"
19,O=C(CCCOc1ccccc1)Nc1ccc(Cl)c(S(=O)(=O)N2CCOCC2)c1,"inconclusive [inhibitor, single point]"
20,COc1ccc(/C=C2/C(=O)OCc3cc(OC)c(OC)cc32)cc1,"inconclusive [inhibitor, partial curve, poor fit]"

row,SMILES,Potency
1,Cc1ccc(S(=O)(=O)N/N=C/c2ccc(OS(=O)(=O)c3ccc(C)c([N+](=O)[O-])c3)cc2)cc1,"inconclusive [inhibitor, single point]"
2,CN(N=O)c1ccc(CC2CCc3ccccc32)cc1 (stereo not drawn),"inconclusive [inhibitor, single point]"
3,CCN(C(=O)Cn1cc(C(=O)c2ccc(F)cc2)c(=O)c2ccc(C)nc21)c1cccc(C)c1,"inconclusive [inhibitor, single point]"
4,Cc1ccc(OCC(O)CNC2CCCC2)c(C)c1 (stereo not drawn),"inconclusive [inhibitor, partial curve, poor fit]"
5,Cn1cccc1-c1cc(C(=O)N/N=C/c2cc(Br)ccc2O)[nH]n1,"inconclusive [inhibitor, full curve, poor fit]"
6,COc1cc(C(=O)NCC(=O)N2CCN(S(=O)(=O)c3cc(C)ccc3C)CC2)cc(OC)c1OC,"inconclusive [inhibitor, partial curve]"
7,Cc1ccc(C)c(N2CCN(C(=O)Cn3c(C)c4cnn(-c5ccccc5)c(=O)c4c3C)CC2)c1,"inconclusive [inhibitor, partial curve, poor fit]"
8,COc1cc(NC(=O)Cn2c(=O)nc(-c3ccccc3F)c3cc(Cl)ccc32)cc(OC)c1,"inconclusive [inhibitor, partial curve, poor fit]"
9,O=C(NC(=O)c1c(Cl)cccc1Cl)Nc1ccc(Oc2cccnc2)nc1,"inconclusive [inhibitor, single point]"
10,COc1ccc(C(=O)Nc2nc(CC(=O)NCc3ccc(F)cc3)cs2)cc1,"inconclusive [inhibitor, single point]"
11,CC1CN(C(=O)CCC(=O)NCCCN2CCC(Cc3ccccc3)CC2)c2cc(Cl)ccc2O1 (stereo not drawn),"inconclusive [inhibitor, full curve, poor fit]"
12,O=C1/C(=C/c2ccc(Cl)cc2)SC(=S)N1CCC(=O)N1CCCCC1CCO (stereo not drawn),"inconclusive [inhibitor, partial curve, poor fit]"
13,COc1ccc(C(=O)CCC(=O)N2CCN(c3ccc(C)cc3)C(C)C2)cc1 (stereo not drawn),"inconclusive [inhibitor, partial curve, poor fit]"
14,CC1CCCN(S(=O)(=O)c2ccc(C(=O)Nc3nnc(-c4ccco4)o3)cc2)C1 (stereo not drawn),inactive
15,COc1ccccc1Nc1nc(N)nc(CN2CCN(c3ccccc3F)CC2)n1,"inconclusive [inhibitor, partial curve, poor fit]"
16,CC(C)(C)S(=O)N1Cc2cc(C(=O)NCc3ccc(Oc4ccccc4)cc3)nc(-c3cccc(-c4cc5ccccc5o4)c3)c2[C@H]1CCO (stereo partly drawn),"inconclusive [inhibitor, single point]"
17,FC(F)(F)c1cnc(Nc2ccc(N3CCOCC3)cc2)c(Cl)c1,"inconclusive [inhibitor, single point]"
18,COC(=O)c1ccc(NC(=O)NC2CCCCC2)cc1,"inconclusive [inhibitor, single point]"
